Assay results taken from PubChem BioAssay AID1347417 (National Center for Advancing Translational Sciences (NCATS), 2020).
Among all 120,000 compounds or so, about 5,300 (4.4%) were called active. The inconclusive results got no clear call from the source; some entries with a clear call stand among them for comparison. The call rests on the fitted dose curve; in most records, active means well fitted inhibition curve with a large enough effect; inconclusive means small, poorly fitted or top-dose-only effect; inactive means no such curve, though single readings can be large or run the other way. A potency beside an inconclusive call is a rough fit, not a confirmed value.

assay: qHTS Primary assay for Inhibitors of Plasmodium falciparum Dd2 growth in vitro; further: nearly all actives have a fitted effect of over 65% in size; settings: P. falciparum Dd2 growth, SYBR Green, 72 h; series mostly up to 28.9 µM
Summary of the method: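 Infected erythrocytes (Dd2, 0.3% parasitemia, 2.5% hematocrit final) are added to compound in RPMI-1640/Albumax II medium, grown 72 h at 37C in low oxygen, then lysed with saponin/Triton-X containing SYBR Green and read by fluorescence.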
Potency means the concentration at half of the fitted maximal effect; tags describe the fitted curve by direction and shape.

SMILES	Potency
Cn1ccnc1CNC[C@H]1Cn2c(-c3ccc(Cl)cc3)cnc2CO1	inconclusive: 14.1 µM [inhibitor, single point]
CCOc1ccc(-c2cc3c(=O)n(CCNC(=O)c4ccc(OC)cc4C)ccn3n2)cc1	inconclusive: 1.12 µM [inhibitor, full curve, poor fit]
CN(C)CC1(O)CCC2(CCN(C(=O)c3ccsc3)CC2)CC1	inconclusive: 12.6 µM [inhibitor, single point]
O=C1NCCCCCN(C(=O)c2ccoc2)[C@@H]2C[C@@H](C(=O)N3CCc4ccccc4C3)C[C@H]12	inconclusive: 10 µM [inhibitor, single point]
CN(C)c1cccc(C(=O)N2CCC3(CC2)N=C(c2ccccc2)NO3)c1	inconclusive: 10 µM [inhibitor, single point]
CC(=O)Nc1cccc2nc(CN3CCN(C(C)C)C(CCO)C3)ccc12 (stereo unspecified)	inactive
COCC(=O)Nc1ccc(-c2noc([C@@H]3CCCN3Cc3ncc[nH]3)n2)cn1	inactive
O=C(Nc1cc(F)cc(F)c1)N1CC(c2noc(-c3ccncc3)n2)C1	inconclusive: 7.94 µM [inhibitor, single point]
Cc1ccc(OCC(=O)NCC2(N3CCN(C)CC3)CCCCC2)cc1C	inconclusive: 2 µM [inhibitor, partial curve, poor fit]
COc1ccc(-c2cc(CC3(NC4CCCCC4)COC3)no2)cc1	inactive
CCCc1noc(-c2ccn3c(CNC(=O)c4ccc5ccccc5n4)nnc3c2)n1	inconclusive: 0.398 µM [inhibitor, full curve]
Cc1ccc(C2Cn3nnc(-c4noc(CNC(=O)c5ccccc5)n4)c3CO2)cc1 (stereo unspecified)	inconclusive: 1.78 µM [inhibitor, full curve, poor fit]
CCCCCCN1CCCC12Cc1ccccc1CNC2=O (stereo unspecified)	inconclusive: 8.91 µM [inhibitor, partial curve]
COc1cccc(-c2nc(N3CCOCC3)cc3c2CN(CC2CC2)C3=O)c1	active: 11.2 µM
CC(C)c1nc2c(c(-c3ccc(O)cc3)n1)CCN(Cc1cccc3ccccc13)CC2	active: 3.16 µM
CCOc1ccccc1CN1CCC(Cc2ccc(C(=O)N3CCOCC3)cc2)CC1	inconclusive: 5.62 µM [inhibitor, partial curve, poor fit]
COC(=O)c1ccc(NC(=O)c2c(NCc3ccc(C)o3)sc3c2CCCC3)cc1	active: 10 µM
CC(=O)NCC1CCCN(Cc2ccc(-c3ccccc3C#N)o2)C1 (stereo unspecified)	inconclusive: 15.8 µM [inhibitor, partial curve, poor fit]
Cc1ccccc1CNC(=O)C1CCN(c2nnc(C)c3c(C)n(-c4ccccc4)nc23)CC1	inactive
O=C(CCc1cc(Cl)no1)N1CCCC(Cc2nncn2CC2CC2)C1 (stereo unspecified)	inconclusive: 17.8 µM [inhibitor, single point]
O=C1CCN(Cc2cccnc2)CCCC(c2nc(-c3cccnc3)no2)CCN1 (stereo unspecified)	inconclusive: 10 µM [inhibitor, partial curve, poor fit]
COc1cc(Cl)ccc1OCc1nnc(C(=O)N2CCC[C@@H]2c2nc3ccccc3[nH]2)n1-c1ccccc1	inconclusive: 10 µM [inhibitor, single point]

SMILES	Potency
O=C(Cn1c(=O)n(Cc2ccc3c(c2)OCO3)c(=O)c2oc3ccccc3c21)Nc1ccccc1	inconclusive: 8.91 µM [inhibitor, single point]
COc1cccc(CN2CCCCCCNC(=O)[C@@H]3C[C@@H](C(=O)NCCc4cnc[nH]4)C[C@@H]32)c1	inconclusive: 8.91 µM [inhibitor, partial curve]
O=C(Cc1ccccc1)Nc1ccc([C@@H](O)[C@H]2COCC(=O)N2Cc2ccc(C(F)(F)F)cc2)cc1	inactive
Cc1ccc(C)c(CN2C(=O)c3ccccc3S(=O)(=O)c3ccc(C(=O)Nc4ccccc4C(F)(F)F)cc32)c1	inconclusive: 11.2 µM [inhibitor, single point]
COc1ccc(C2Cn3nnc(-c4nc(-c5ccc(Cl)cc5)no4)c3CO2)cc1 (stereo unspecified)	inactive
COc1ccc(CNC(=O)c2noc(-c3ccc4c(c3)OCO4)n2)cc1	inconclusive: 17.8 µM [inhibitor, single point]
COc1cccc(C(=O)N2CCCCC2c2n[nH]c(C)n2)c1 (stereo unspecified)	inactive
O=C(c1ccc(Cl)cc1)N1CCC(n2cc(-c3ccc(OC(F)(F)F)cc3)[nH]c2=O)CC1	inconclusive: 11.2 µM [inhibitor, partial curve, poor fit]
CCCc1nnc(C[C@@H]2C[C@@H](C(C)C)[C@H](CNCc3cccnc3)C=C2C)o1	inconclusive: 6.31 µM [inhibitor, partial curve, poor fit]
O=C(NC1CCN(c2cc(-c3cccs3)[nH]n2)C1)c1ccc(F)cc1Cl (stereo unspecified)	inactive
CCc1ccc(NC(=O)Cn2cccc2-c2nc(-c3ccc(OC)c(F)c3)no2)cc1	active: 2 µM
Cc1ccc(S(=O)(=O)NC[C@H]2C[C@@H]3CCN2C[C@@H]3CN2CCc3ccccc32)cc1	inconclusive: 2 µM [inhibitor, full curve]
O=C1CCN(S(=O)(=O)c2cccs2)CCCC(c2nc(-c3ccccc3)no2)CCN1 (stereo unspecified)	inactive
CC(=O)N1CC2(Cc3ccccc31)CN(C(=O)c1ccccc1Cl)C2	inconclusive: 7.94 µM [inhibitor, single point]
COc1ccc(CN2Cc3cc(NC(=O)c4ccc([N+](=O)[O-])cc4)ccc3OC(C)C2=O)c(OC)c1 (stereo unspecified)	active: 10 µM
COCCN1C(=O)CC[C@]2(C(=O)NCc3ccc(F)c(Cl)c3)CCCC[C@@H]12	inactive
O=C(NCc1ccccc1)C1(Oc2ccc(Cl)cc2)CCNCC1	inconclusive: 7.94 µM [inhibitor, partial curve, poor fit]
COc1ccccc1CN1COc2ccc3c(C)cc(=O)oc3c2C1	active: 7.08 µM
CC(C)CCC(=O)NC1CCN(c2cnn(C)c(=O)c2)CC1	inactive
CS(=O)(=O)N1CCC(OC2CCN(C(=O)C3(c4ccccc4)CC3)CC2)CC1	inconclusive: 17.8 µM [inhibitor, single point]
CCCCN(CC)CCNC(=O)c1cn(CCOC)c(=O)c2c1c1ccccc1n2C	inconclusive: 12.6 µM [inhibitor, single point]
N#Cc1ccc(C(=O)N2CCC(Cc3nc(-c4ccncc4)n[nH]3)C2)cc1 (stereo unspecified)	inconclusive: 7.94 µM [inhibitor, partial curve, poor fit]

SMILES	Potency
CCc1nc2c(c(-c3ccc(Cl)cc3)n1)CN(C(=O)c1ccc(C)cc1)CC2	inconclusive: 17.8 µM [inhibitor, single point]
O=C(c1ccco1)N1CCC2(CC1)CC(N1CCN(c3ccccn3)CC1)CCO2 (stereo unspecified)	inconclusive: 17.8 µM [inhibitor, single point]
COc1ccccc1N1CCN(C(=O)c2sc3nc4n(c(=O)c3c2C)CCC4)CC1	inconclusive: 10 µM [inhibitor, partial curve]
COc1ccc(C(=O)N2CCC3(CC2)CC(c2nc(C)no2)N(C)C3)c(OC)n1 (stereo unspecified)	inconclusive: 11.2 µM [inhibitor, partial curve]
Cc1cccc(Cn2cc(C(=O)c3ccccc3)c(=O)c3cc4c(cc32)OCO4)c1	inconclusive: 17.8 µM [inhibitor, single point]
NC(=O)c1ccccc1OCC(=O)N1CC(CNC(=O)Nc2ccccc2)C2(C1)CN(c1ccccc1)C2 (stereo unspecified)	inconclusive: 0.708 µM [inhibitor, partial curve]
Cc1noc([C@@H](C)NS(=O)(=O)c2ccccc2)c1C(=O)O	inactive
COc1ccc(-c2ccccc2NC(=O)C2CCCN(Cc3ccccc3O)C2)cc1 (stereo unspecified)	active: 2.82 µM
Cc1nn(CC(=O)NCCN2CCCCCC2)c(=O)c2nc(-c3ccccc3)sc12	inconclusive: 10 µM [inhibitor, single point]
Cc1cc(CN2CCC3CC(=O)NCCC3C2)no1 (stereo unspecified)	inactive
COc1ccc(-c2ccc3ncc(Nc4ccccc4F)n3n2)cc1OC	inconclusive: 2.51 µM [inhibitor, partial curve, poor fit]
CCC[C@H]1CN(C(=O)c2cccc(N3CCOCC3)c2)C[C@@H]1N	inconclusive: 12.6 µM [inhibitor, partial curve, poor fit]
CC(C)(O)C1CCCN(C(=O)c2cc(COc3cccc(F)c3)[nH]n2)C1 (stereo unspecified)	inactive
CCOC(=O)c1nc(Nc2ccc(C(=O)OCC(C)C)cc2)c2ccccc2n1	active: 11.2 µM
O=C1NCCC[C@@H]1NC(=O)[C@H]1CN(C(=O)C2CCNCC2)CCN1C(=O)c1cccs1	inactive
O=C(c1ccc2nc[nH]c2c1)N1CCCN(c2cc(-c3ccc(Cl)cc3)[nH]n2)CC1	inconclusive: 0.631 µM [inhibitor, full curve, poor fit]
COc1ccc(-c2ccc(NS(=O)(=O)c3cccc(Cl)c3)cc2)nn1	inactive
CC(Oc1ccccc1)C(=O)NC1CCN(c2cc(C(F)(F)F)ncn2)CC1 (stereo unspecified)	inconclusive: 1.58 µM [inhibitor, full curve, poor fit]
O=C1CNc2ccc(C(=O)N3CCn4nc(CO)cc4C3)cc2N1	inactive
Cc1noc2c(NC3CCN(C)CC3)cc(-c3ccc(Cl)cc3)nc12	inconclusive: 6.31 µM [inhibitor, partial curve, poor fit]
Cc1noc([C@@H](C)NC(=O)c2cccs2)c1C(=O)O	inactive
CCCCN1C(=O)C(CC(=O)NC2CC2)Sc2ncccc21 (stereo unspecified)	inactive
